Data taken from the supplement of paper PMC12217912.
This is one part of the list. The full chains were built here from the parent and the listed change. Values near 0.05 are background.

B1: TEV protease; numbered along this chain (parent)
chain: MGESLFKGPRDYNPISSSICHLTNESDGHTTSLYGIGFGPFIITNKHLFRRNNGTLVVQSLHGVFKVKDTTTLQQHLVDGRDMIIIRMPKDFPPFPQKLKFREPQREERICLVTTNFQTKSMSSMVSDTSCTFPSGDGIFWKHWIQTKDGQCGSPLVSTRDGFIVGIHSASNFTNTNNYFTSVPKNFMELLTNQEAQQWVSGWRLNADSVLWGGHKVFMVKPEEPFQPVKEATQL

Variants of: B1
Experiment: raw area under fraction-flipped curve 0-4 h after induction (AUC4h, not background-subtracted), DNA-recorder readout of cleavage of the substrate (dimensionless); higher = more cleavage of the substrate by the protease variant
Conditions: temperature: 34 °C; time window: 0-4 h after rhamnose induction
Method: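 In vivo DNA recorder in E. coli TOP10(DE3) ΔrhaA at 34 °C. Each TEVp single-site mutant (parent TEVp 0) is paired with a single-site variant of the 7-mer TEVs (canonical ENLYFQ|S). The substrate sits between flexible linkers in a Bxb1-sfGFP-TEVs-SsrA fusion, so cleavage stabilises Bxb1 and speeds flipping of a recombination array, read by NGS. The value is the raw area under the fraction-flipped curve over 0-4 h after rhamnose induction (AUC4h), with ≥20 reads per time point. It is not background-subtracted; inactive controls average about 0.047.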
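Further: Bxb1 expression induced with 0.2% (w/v) L-rhamnose at OD600 near 0.5, cultures sampled hourly, flipped fraction per protease–substrate barcode pair counted by paired-end Illumina sequencing.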

| Variant | area with substrate ENLAFQS | area with substrate ENLCFQS | area with substrate ENLFFQS | area with substrate ENLHFQS | area with substrate ENLKFQS | area with substrate ENLNFQS | area with substrate ENLPFQS | area with substrate ENLRFQS | area with substrate ENLSFQS | area with substrate ENLDFQS | area with substrate ENLEFQS | area with substrate ENLGFQS | area with substrate ENLIFQS | area with substrate ENLLFQS | area with substrate ENLMFQS | area with substrate ENLVFQS | area with substrate ENLQFQS | area with substrate ENLTFQS | area with substrate ENLWFQS |
| --- | --- | --- | --- | --- | --- | --- | --- | --- | --- | --- | --- | --- | --- | --- | --- | --- | --- | --- | --- |
| Q194F | 0.0649 | 0.0855 | 0.066 | 0.0668 | 0.0644 | 0.0506 | 0.0569 | 0.062 | 0.056 |  |  |  |  |  |  |  |  |  |  |
| E195K | 0.0681 | 0.071 | 0.0774 | 0.0692 | 0.101 | 0.07 | 0.0706 | 0.0785 | 0.0612 | 0.0656 | 0.0527 | 0.0567 | 0.0767 | 0.0545 | 0.0676 | 0.0955 |  |  |  |
| W199E | 0.0637 | 0.0598 | 0.0612 | 0.058 | 0.0633 | 0.074 | 0.0639 |  | 0.05 | 0.0639 | 0.0629 | 0.0609 | 0.0342 | 0.0634 | 0.0595 | 0.0771 | 0.059 | 0.0566 | 0.0869 |
| W199N | 0.0636 |  | 0.0677 | 0.0492 |  | 0.0619 |  |  | 0.0713 | 0.0673 | 0.0625 | 0.0691 | 0.0388 | 0.0972 | 0.0692 | 0.054 | 0.0727 |  | 0.0494 |
| S201R | 0.0684 | 0.0916 | 0.0844 |  |  | 0.0651 | 0.0567 |  | 0.0619 | 0.0703 |  |  | 0.085 | 0.0523 |  |  | 0.0673 |  | 0.0709 |
| G202Q | 0.0449 |  | 0.0323 | 0.0719 | 0.0675 | 0.0539 | 0.0556 | 0.0675 | 0.0515 | 0.0644 | 0.051 |  |  | 0.0754 | 0.0743 | 0.065 | 0.059 | 0.097 |  |
| W203G | 0.0617 | 0.065 | 0.0885 |  | 0.0635 | 0.07 |  |  | 0.0661 | 0.0611 |  | 0.061 | 0.0409 | 0.05 | 0.0497 | 0.0677 | 0.0505 | 0.0664 | 0.0558 |
| W203N | 0.067 |  | 0.0549 | 0.0674 | 0.0657 | 0.0617 | 0.0507 | 0.0554 | 0.0404 | 0.0568 | 0.0563 |  |  |  | 0.0654 |  | 0.0451 |  | 0.0493 |
| R204L | 0.0646 | 0.0711 | 0.0669 | 0.0811 | 0.0703 | 0.0635 | 0.0609 | 0.0635 | 0.0729 | 0.0675 | 0.0609 |  |  |  | 0.0597 |  | 0.0629 | 0.05 | 0.0603 |
| L205G | 0.0512 | 0.0471 | 0.063 | 0.0608 | 0.0784 | 0.0568 | 0.0591 | 0.0582 | 0.0908 | 0.0614 | 0.0581 |  |  | 0.0634 | 0.0855 | 0.042 | 0.0592 |  | 0.0362 |
| L205M | 0.0726 |  | 0.109 | 0.088 | 0.0941 | 0.0615 |  |  | 0.0588 | 0.0476 |  |  |  |  |  | 0.0958 | 0.0964 |  | 0.101 |
| S209V | 0.0622 |  | 0.0911 | 0.0749 | 0.0689 | 0.0659 | 0.0631 | 0.0716 | 0.0663 | 0.0615 | 0.0655 | 0.0587 |  | 0.0722 |  |  | 0.0821 |  | 0.0629 |
| L211Q | 0.0794 | 0.037 | 0.0873 | 0.0836 | 0.0962 | 0.0528 | 0.0635 |  | 0.0589 | 0.064 |  | 0.055 | 0.0744 | 0.0817 |  |  |  |  | 0.0833 |
